# Among all 310,000 compounds or so, about 14,000 (4.5%) showed an effect of 50% or more. The effect is printed as a negative number. The list shows a part of the results.
# Target: human ether-à-go-go-related gene (hERG) potassium channel (human, UniProt Q12809)
# Experiment: primary screen, population patch clamp on CHO cells stably expressing hERG
# 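Note: peak tail current of the secondary pulse compared with the same well before compound.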
# Sequence of human ether-à-go-go-related gene (hERG) potassium channel (Q12809 whole entry, looked up): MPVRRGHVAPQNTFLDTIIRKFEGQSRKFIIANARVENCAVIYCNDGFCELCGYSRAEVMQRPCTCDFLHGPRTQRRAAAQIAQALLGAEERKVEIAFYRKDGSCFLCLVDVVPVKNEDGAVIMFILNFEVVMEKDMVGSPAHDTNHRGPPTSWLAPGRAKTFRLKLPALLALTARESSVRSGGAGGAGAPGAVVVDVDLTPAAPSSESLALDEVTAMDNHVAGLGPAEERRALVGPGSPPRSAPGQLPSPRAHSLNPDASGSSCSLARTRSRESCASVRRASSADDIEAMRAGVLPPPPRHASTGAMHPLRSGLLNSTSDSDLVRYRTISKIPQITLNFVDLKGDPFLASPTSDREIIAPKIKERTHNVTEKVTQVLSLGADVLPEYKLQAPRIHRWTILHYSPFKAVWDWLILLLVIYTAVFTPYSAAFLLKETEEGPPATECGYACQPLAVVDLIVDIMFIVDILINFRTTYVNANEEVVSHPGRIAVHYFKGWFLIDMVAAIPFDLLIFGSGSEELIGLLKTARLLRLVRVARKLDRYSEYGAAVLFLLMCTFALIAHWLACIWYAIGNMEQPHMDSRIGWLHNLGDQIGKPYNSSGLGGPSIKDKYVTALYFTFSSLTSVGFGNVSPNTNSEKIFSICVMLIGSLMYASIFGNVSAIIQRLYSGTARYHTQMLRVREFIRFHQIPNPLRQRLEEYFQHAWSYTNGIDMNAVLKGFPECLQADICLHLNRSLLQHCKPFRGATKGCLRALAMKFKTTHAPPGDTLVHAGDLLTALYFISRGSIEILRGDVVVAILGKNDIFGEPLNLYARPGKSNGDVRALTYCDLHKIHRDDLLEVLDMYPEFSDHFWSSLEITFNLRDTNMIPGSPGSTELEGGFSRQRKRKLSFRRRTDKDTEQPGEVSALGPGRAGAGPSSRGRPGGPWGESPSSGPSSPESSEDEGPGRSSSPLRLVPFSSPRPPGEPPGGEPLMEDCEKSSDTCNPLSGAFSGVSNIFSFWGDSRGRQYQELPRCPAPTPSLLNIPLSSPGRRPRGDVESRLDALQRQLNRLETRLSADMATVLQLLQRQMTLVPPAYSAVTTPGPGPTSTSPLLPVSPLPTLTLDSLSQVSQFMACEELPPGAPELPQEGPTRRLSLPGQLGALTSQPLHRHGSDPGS
row,Compound,"hERG current change (%, negative = inhibition) at 10uM [%]"
1,COc1ccc(C(=O)C2CCCN(S(=O)(=O)c3ccccc3F)C2)c(C)c1 (stereo not drawn),9.1
2,COCc1cc(C)nc2sc(C(=O)NN)c(-n3cccc3)c12,11.2
3,Cc1ccc(Oc2ccc(Cl)cc2N)cc1,15
4,FC(F)(F)Oc1ccc(Nc2nc3ccccc3o2)cc1,9.61
5,Cc1ccccc1OCC(=O)Nc1ccc(N2CCOCC2)cc1N1CCOCC1,-32
6,O=C(NCc1ccc2c(c1)OCO2)c1ccc(CS(=O)(=O)c2ccc(Br)cc2)o1,-4.76
7,C=CCN1CC(c2nc3ccccc3n2Cc2cccc3ccccc23)CC1=O (stereo not drawn),-24.2
8,CCCCn1c(N)c(N(CC(C)C)C(=O)C2CC(=O)N(c3ccccc3C(C)CC)C2)c(=O)[nH]c1=O (stereo not drawn),1.96
9,Cc1ccc(NC(=O)COc2ccc(N(C)S(=O)(=O)c3ccc(F)cc3)cc2)cc1,-0.724
10,Cc1cc(C)n2nc(S(=O)(=O)N(CC(C)C)CC(C)C)nc2n1,3.63
11,Cc1c(NC(=O)Cn2nc(C(F)(F)F)c3c2CCCC3)c(=O)n(-c2ccccc2)n1C,2.81
12,CN(C)C1=NC[C@H](Cc2ccccc2)N1CCC1CCCC1,-43.5
13,COc1ccc2oc(C(=O)OCC(=O)N(C)C3CCCCC3)c(C)c2c1,-22.9
14,Nc1nc(SCc2nc(-c3ccccc3)no2)[nH]c(=O)c1-c1ccccc1,-39.9
15,CCOC(=O)c1ccc(S(=O)(=O)N2CCN(CC(=O)NC(=O)NC3CCCCC3)CC2)cc1,-38.8
16,COc1ccccc1NC(=O)c1ccc(-c2nn(C)c(=O)c3ccccc23)cc1,-25.8
17,Cc1oc2c(C)c3oc(=O)c(CCC(=O)NCCCN4CCCC4=O)c(C)c3cc2c1C,-14.8
18,COC(=O)c1cc(C#N)c(NCc2ccc(Cl)cc2Cl)nc1C,-9.15
19,CC1(O)C(=O)C=C2C=C(C3CC3)OC=C2C1=O (stereo not drawn),16.8
20,CCOC(=O)c1ccc(S(=O)(=O)Nc2nc3cc(S(=O)(=O)NC4=NCCCCC4)ccc3s2)cc1,1.17
21,COc1ccc(CCNC(=O)C23CCC(C)(C(=O)C2=O)C3(C)C)cc1OC (stereo not drawn),11.1

row,Compound,"hERG current change (%, negative = inhibition) at 10uM [%]"
1,Cc1ccccc1NC(=O)c1cccc(Cn2cc(Br)c([N+](=O)[O-])n2)c1,-3.63
2,O=C(O)C(F)(F)F.O=C1C(Cc2ccccc2)Nc2ncnc(N3CCN(c4ccccc4)CC3)c2N1Cc1ccc(Cl)cc1 (stereo not drawn),0.92
3,CC1CC(C)CN(c2nc3c(c(=O)n(C)c(=O)n3C)n2C)C1 (stereo not drawn),1.37
4,CC(=O)c1ccccc1NCC(=O)Nc1ccc(C)cc1,10.4
5,O=C(Nc1ccc2c(c1)OCCO2)N1CCOCC1,19.3
6,CCOc1ccc(/C=N/NC(=O)c2ccoc2C)cc1OC,-3.42
7,O=C(O)c1cc(N2C(=O)CCC2=O)ccc1NCc1cccnc1,14.4
8,Cc1[nH]n(-c2ccccc2)c(=O)c1C1(C(F)(F)F)C(=O)N(c2ccc(F)cc2)C2=C1C(=O)CC(C)(C)C2 (stereo not drawn),11.8
9,CN(C)c1ccc(P(=S)(N(C)C)N(C)C)cc1,7.91
10,Cc1ccc(NC(=O)CCC(=O)NNC(=O)c2cccc([N+](=O)[O-])c2)cc1C,-3.39
11,CCOc1cc(/C=C2\SC(=S)N(NS(=O)(=O)c3ccccc3)C2=O)ccc1O,8.33
12,COc1cccc(-c2c(C(=O)N/N=C/c3ccc(C)o3)nnn2-c2nonc2N)c1,-4.96
13,O=C(Cn1c(SCC(=O)N2CCc3ccccc32)nc2ccccc21)NC1CCCC1,19.5
14,O=C(OCN1C(=O)c2ccccc2C1=O)C1CCCCC1,5.15
15,CCOc1cc(CNCCSc2nnnn2C)cc(Br)c1OCc1ccccc1.Cl,-23.1
16,COc1ccccc1N1CCN(CC(=O)c2c(N)n(C)c(=O)n(C)c2=O)CC1,-14.7
17,CSCC[C@H](NC(=O)OC(C)(C)C)C(=O)N1CCC(C(=O)N[C@@H](Cc2c[nH]c3ccccc23)C(=O)O)CC1,25.9
18,Cc1cnc(C(=O)OCC(=O)c2cc(C)n(C)c2C)cn1,10.5
19,COc1ccc(CNC(=O)[C@H](C)NC(=O)C2CCN(C(=O)[C@@H](N)Cc3ccccc3)CC2)cc1,3.52
20,COc1ccccc1NC(=O)N1CCCC1C(=O)Nc1ccc2c(c1)OCCO2 (stereo not drawn),-5.77
21,N[C@@H](CCC(=O)N[C@@H](CSN=O)C(=O)NCC(=O)O)C(=O)O,-8.65

row,Compound,"hERG current change (%, negative = inhibition) at 10uM [%]"
1,N#Cc1c(/N=C\c2ccc(O)c([N+](=O)[O-])c2)sc2c1CCCC2,15.8
2,Cc1nn(CC(=O)Nc2ccccn2)c(=O)c2ccccc12,0.386
3,CC(=O)Nc1ccc(-c2csc(-c3cccnc3)n2)cc1,3.98
4,CCCCSc1nnc2n(CCc3ccccc3)c(=O)c3c4c(sc3n12)COC(C)(C)C4,7.19
5,CC(=O)NC1C(Oc2ccc(C=O)cc2)OC(COC(C)=O)C(OC(C)=O)C1OC(C)=O (stereo not drawn),25.7
6,CCOC(=O)c1sc(NC(=S)NC(=O)C23CC4CC(CC(C4)C2)C3)cc1C,20.2
7,O=C(Cc1cccs1)N1CCC(c2nc3c(nnn3Cc3ccccc3Cl)c(=O)[nH]2)CC1,-41.7
8,CC(C)CCSc1nc2ccccc2[nH]1,15.9
9,Cc1cc(S(=O)(=O)NCc2ccccc2)ccc1OCC(=O)N1CCOCC1,2.83
10,Cc1cccc(C)c1NC(=O)CN(C)C(=O)[C@H](C)NC(=O)c1ccco1,20.3
11,Cc1oc(-c2ccccc2)nc1CS(=O)CC(=O)N1CCc2ccccc2C1 (stereo not drawn),-20.5
12,O=S(=O)(Nc1ccncc1Cl)c1ccc2ccccc2c1,9.75
13,Cc1nc2ccccn2c1C(=O)c1ccccc1,-10.6
14,O=C(O)c1ccc(N/N=C/c2cn(-c3ccccc3)nc2-c2cccs2)cc1,8.65
15,N#Cc1ccc(-c2ccc(OCC3CNC(=O)O3)cc2)cc1 (stereo not drawn),-1.13
16,CCN(c1ccccc1C)S(=O)(=O)c1nnc(NC(=O)c2ccco2)s1,8.53
17,COc1ccc(N/C(C)=C2/C(=O)C(=O)N(CCO)C2c2ccc(Br)cc2)cc1 (stereo not drawn),-49
18,Oc1ccc(NCc2ccccc2OCc2ccccc2)cc1,-15.1
19,CCN(CC)C(=O)CN(C#N)c1nc(Cl)nc(N(C)C)n1,16.1
20,COc1ccc([N+](=O)[O-])c2c(=O)ccoc12,-14.5
21,Nc1nc(SCC(=O)Nc2ccc([N+](=O)[O-])cc2)[nH]c(=O)c1NC(=O)c1ccc(Br)cc1,13.5

row,Compound,"hERG current change (%, negative = inhibition) at 10uM [%]"
1,CCN(CC)c1ccc(C=Nc2cc(C)ccc2C)c(O)c1,7.25
2,CCC(=O)n1nc(-c2ccccc2)nc1NCc1ccccc1,10.9
3,CN(C)CCN1C(=O)C(=O)/C(=C(/O)c2ccc(S(=O)(=O)N3CCOCC3)cc2)C1c1ccc(F)cc1 (stereo not drawn),-4.56
4,COc1ccc(-c2cc(C(=O)Nc3cccc(O)c3)no2)cc1,20.3
5,CC1Cc2ccccc2N1S(=O)(=O)c1cccc(C(=O)NCCCn2ccnc2)c1 (stereo not drawn),-50.1
6,CCCCCN1CC(=O)N2[C@@H](Cc3c([nH]c4ccccc34)C2(C)C)C1=O,30
7,Cc1ccc(C(C)NC(=O)c2c(-c3ccccc3)noc2C)cc1C (stereo not drawn),16
8,COC(=O)c1cccc(NC(=O)NC(=O)c2ccc(Cl)cc2)c1,6.23
9,CCOC(=O)C1CCN(C(=O)COc2ccc([N+](=O)[O-])cc2)CC1,-60.8
10,Cc1ccc(OCCCN2CCCC2)c(C)c1.O=C(O)C(=O)O,-27.2
11,O=C(Nc1ccc(CN2CCOCC2)cc1)c1ccc(-c2cccc([N+](=O)[O-])c2)o1,-48.3
12,CCOc1ccc(NS(=O)(=O)c2cc(C(=O)N3CCCC3)ccc2Cl)cc1,-44.1
13,Cc1ccc(-n2c(Cc3cccn3C)nnc2SCC(=O)NCc2ccco2)cc1,-11.4
14,CCOc1cccc(C=Nc2cc(C)cc(C)c2O)c1O,-1.6
15,O=C(CN1C(=O)CCSc2ccccc21)N1CCC2(CC1)OCCO2,-0.232
16,COc1cccc(/C=N/NC(=O)CN2C(=O)NC3NC(=O)NC32)c1 (stereo not drawn),6.65
17,Cc1ccc(/C=C2/NC(=O)N(Cc3ccccc3F)C2=O)o1,-3.35
18,COc1ccc(/C=N\NC(=O)COc2ccccc2Cl)cc1Cn1nc(C)cc1C,8.15
19,O=C(O)c1ccc(Cl)c(NC(=O)C2CCCN2S(=O)(=O)c2cccc3nsnc23)c1 (stereo not drawn),4.38
20,NC(=O)c1ccc(-c2c(-c3ccccc3)sc3ccccc23)cc1,12.4
21,O=C(O)CC/C(=N\Nc1ccc([N+](=O)[O-])cc1S(=O)(=O)N1CCOCC1)c1cccs1,-9.21

# — paper PMC4336329 (PLoS ONE, 2015)
